Test results as given in the supplement of paper PMC12217912.
The other results are listed elsewhere or left out. The full chains were built here from the parent and the listed change. Values near 0.05 are background.

B1: TEV protease; numbered along this chain (parent)
chain: MGESLFKGPRDYNPISSSICHLTNESDGHTTSLYGIGFGPFIITNKHLFRRNNGTLVVQSLHGVFKVKDTTTLQQHLVDGRDMIIIRMPKDFPPFPQKLKFREPQREERICLVTTNFQTKSMSSMVSDTSCTFPSGDGIFWKHWIQTKDGQCGSPLVSTRDGFIVGIHSASNFTNTNNYFTSVPKNFMELLTNQEAQQWVSGWRLNADSVLWGGHKVFMVKPEEPFQPVKEATQL

Variants of: B1
Assay: raw area under fraction-flipped curve 0-4 h after induction (AUC4h, not background-subtracted), DNA-recorder readout of cleavage of the substrate (dimensionless); higher = more cleavage of the substrate by the protease variant
Conditions: temperature: 34 °C; time window: 0-4 h after rhamnose induction
Method: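 In vivo DNA recorder in E. coli TOP10(DE3) ΔrhaA at 34 °C. Each TEVp single-site mutant (parent TEVp 0) is paired with a single-site variant of the 7-mer TEVs (canonical ENLYFQ|S). The substrate sits between flexible linkers in a Bxb1-sfGFP-TEVs-SsrA fusion, so cleavage stabilises Bxb1 and speeds flipping of a recombination array, read by NGS. The value is the raw area under the fraction-flipped curve over 0-4 h after rhamnose induction (AUC4h), with ≥20 reads per time point. It is not background-subtracted; inactive controls average about 0.047.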
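Further: Bxb1 expression induced with 0.2% (w/v) L-rhamnose at OD600 near 0.5, cultures sampled hourly, flipped fraction per protease–substrate barcode pair counted by paired-end Illumina sequencing.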

Variant	area with substrate ENLAFQS	area with substrate ENLDFQS	area with substrate ENLEFQS	area with substrate ENLFFQS	area with substrate ENLGFQS	area with substrate ENLKFQS	area with substrate ENLNFQS	area with substrate ENLPFQS	area with substrate ENLQFQS	area with substrate ENLRFQS	area with substrate ENLSFQS	area with substrate ENLWFQS	area with substrate ENLHFQS	area with substrate ENLIFQS	area with substrate ENLLFQS	area with substrate ENLVFQS	area with substrate ENLCFQS	area with substrate ENLMFQS	area with substrate ENLTFQS
H29R	0.069	0.0633	0.0721	0.08	0.0618	0.0816	0.065	0.08	0.0685	0.0821	0.0609	0.0643							
H29E	0.0718	0.0524	0.0836			0.0878	0.0596	0.0663			0.0726		0.0649	0.113	0.0737	0.0895			
H29A	0.0652	0.0565	0.052	0.0656		0.066	0.0596	0.0621	0.0902	0.0774	0.0569	0.083	0.0703		0.0857	0.0836	0.0779	0.0685	
H29D	0.0646	0.0546	0.0816	0.094	0.0214	0.0781	0.0745	0.056	0.0714		0.0802	0.0686	0.0527			0.0781	0.0692	0.086	
P14W	0.0678	0.0605	0.0739	0.0787	0.0739	0.0681	0.0728	0.0574	0.0648	0.078	0.0651	0.0734	0.0645	0.0557	0.0806	0.0837	0.0791	0.0629	
L33P	0.0545	0.0539	0.037	0.0486		0.048	0.0447	0.0479	0.0459		0.0606	0.0431	0.0577	0.046	0.0496	0.0515	0.0498	0.0514	
L22K	0.0529	0.0508	0.0566	0.0437		0.0657	0.0477		0.0509	0.0367	0.0467	0.0463	0.0334	0.0504	0.052			0.0515	
L22V	0.051	0.0651	0.0646	0.0721	0.0637	0.0741	0.0411		0.0412	0.0718	0.0609	0.0712	0.0649		0.0673	0.0682	0.0713	0.07	0.0627
S18R	0.0401	0.0593		0.0598		0.0907	0.0469	0.06		0.0575	0.0556	0.0826	0.09		0.0691	0.085	0.0758	0.0594	
T30W	0.0697	0.0469	0.0868	0.0835		0.0655	0.0616	0.0479	0.0854	0.0676	0.0655	0.0795	0.0966	0.0268	0.0822			0.0726	
S26C	0.0575	0.0612	0.0738	0.0725	0.0455	0.0736	0.0673	0.0769	0.064	0.0644	0.0619	0.0641	0.075	0.0768		0.0747	0.0575		
S26F	0.0657	0.0605	0.0667	0.0669		0.068	0.0569		0.0449	0.0634	0.0561	0.0556	0.0676	0.0643	0.0559		0.0631	0.0796	
S26K	0.0597	0.0707	0.0525	0.0626		0.07	0.0561	0.0785	0.0678		0.0586	0.0682	0.0657			0.0694	0.0564		0.0816
D27K	0.0662	0.0592		0.103		0.0697	0.0651	0.0515	0.0562	0.0725	0.072			0.0811			0.0731		
D27Q	0.0724	0.0408		0.0727	0.06	0.0655	0.0597	0.0407	0.0675	0.0729	0.0644		0.0645	0.0709	0.0711		0.0451		0.0583
G39Q	0.0397	0.044	0.0531	0.0541		0.0412	0.0399	0.0366	0.0353		0.0436	0.0474	0.0444	0.0416	0.0397		0.0278	0.0288	
G39W	0.0481	0.0498	0.0488	0.0478	0.0349	0.0507	0.0407	0.053	0.0428	0.0455	0.0349	0.044	0.0449	0.0517		0.0484	0.0443	0.0476	0.0534
I36A	0.0527	0.0599	0.0606	0.0592		0.0496	0.0569	0.0536	0.0561	0.055	0.0604		0.0587	0.0652	0.0514	0.0569	0.0461	0.0309	
I36E	0.0522	0.0501	0.0484	0.045	0.0462	0.0459	0.0508	0.0451	0.0525	0.0345	0.0544	0.0424	0.0493		0.0626	0.0415	0.0527	0.0756	
I36R	0.0483	0.0416	0.0502	0.0491		0.0491	0.0421	0.0458	0.0567	0.0461	0.0381	0.0442	0.0458	0.0443	0.0519		0.046		
I36V	0.0604	0.0578	0.0513	0.0867	0.0806	0.0634	0.0573	0.0717	0.0637	0.0707	0.0634		0.0731		0.0748	0.0772	0.0849	0.081	
T31F	0.0573	0.0699	0.0652	0.0899	0.0688	0.0878	0.0665	0.0619	0.0695	0.0662	0.0675	0.0672	0.0654	0.0728	0.0729	0.0951	0.058		0.0545
T31P	0.0464	0.0637	0.0584	0.0351	0.0868	0.0537	0.0547	0.038	0.045		0.0757		0.0598		0.0651	0.0643			
